Measurements: article PMC4207660, “Identification and Characterization of Hundreds of Potent and Selective Inhibitors of Trypanosoma brucei Growth from a Kinase-Targeted Library Screening Campaign” (PLoS Neglected Tropical Diseases, 2014)
Values after ≈ are worked out from the molar mass of the structure shown. Read-outs that look alike come from different tables or passages of the source.

Tests used:
[1] = tested on: T. brucei brucei parasites (Lister 427 strain); test: Dose response growth inhibition assay (resazurin, 72 h); format: cell-based; settings: Trypanosoma brucei; T. b. brucei growth inhibition; read-out: Tbb pEC50 (converted)
Description: Greiner sterile black clear bottom 384-well assay plates were pre-dispensing with 200 nL of compound in each well, from master plates at 1 mM (100% DMSO) containing selection from the GSK compound collection. Controls of 0% response (control 1, 200 nL of 100%DMSO) and 100% response (control 2, 200 nL of 1 mM pentamidine) were included in each assay plate in columns 6 and 18, respectively. Plates containing 200 nL of 100% DMSO were included randomly in the assay, to assess quality through all process. […] After this period, 10 µL of 200 µM resazurin solution in prewarmed HMI-9 were added to each well, and plates were allowed to incubate 2 hours more prior fluorescence reading in a Wallac EnVision Multilabel Plate Reader (Perkin-Elmer). Raw fluorescent data from the Envision plate reader were uploaded into GSK HTS database (ActivityBase). Activity of each well was normalized as a percentage of inhibition per-plate basis using the following equation: [drawing 1]
For dose-response experiments, serial compound dilutions of selected hits from the primary campaign were plotted against compound concentration. Dose response master plates were prepared by 3-fold dilutions (starting with 10 mM DMSO stock solutions), providing 11 concentrations. From these master plates, 200 nL per well was stamped in final assay plates, including the same controls describe in the primary single shot assay. […]

[2] = target: T1, Human Serum Albumin (HSA) (Homo sapiens, UniProt P02768); test: Protein binding assay (HPLC stationary phase), HSA; format: in vitro ADME; settings: Measured
T1 construct: purchased Chiral Technologies, France
Description: Chemically bonded Human Serum Albumin (HSA) and Alpha-1-acidglycoprotein HPLC stationary phases (Chiral Technologies, France) were used for measuring compounds' binding to plasma proteins, applying linear gradient elution up to 30% iso-propanol. The run time was 6 min, including the re-equilibration of the stationary phases with the 50 mM pH7.4 ammonium acetate buffer. The obtained gradient retention times were standardised using a calibration set of mixtures as described in the references. The average standard error of the assay depends on the binding strength and kinetics of the compounds.

ChromlogD assay = test: ChromlogD assay
Description: The Chromatographic Hydrophobicity Index (CHI)[22] values were measured using reversed phase HPLC column (Luna C18 (2), Phenomenex, UK) with a fast acetonitrile gradient at starting mobile phase of pH = 7.4. CHI values are derived directly from the gradient retention times by using a calibration line obtained for standard compounds. The CHI value approximates to the volume % organic concentration when the compound elutes. […] The average error of the assay is ±3 CHI unit or ±0.25 ChromlogD.

Cytochrome P450 (CYP450) = Cytochrome P450 (CYP450) (Homo sapiens, UniProt P08684); test: Cytochrome P450 inhibition profile; format: in vitro ADME; settings: Measured
Description: The P450 inhibition profile of the inhibitors was determined as previously described.

[3] = CLND kinetic solubility assay; format: physicochemical; settings: phosphate buffered saline, pH 7.4, aqueous buffer, kinetic from dmso stock; Measured; read-out: Aq Sol
Description: 5 µL of 10 mM DMSO stock solution was diluted to 100 µL with pH 7.4 phosphate buffered saline, equilibrated for 1 hour at room temperature, filtered through Millipore MultiscreenHTS-PCF filter plates (MSSL BPC). The filtrate was quantified by suitably calibrated flow injection Chemi-Luminescent Nitrogen Detection.

Row | Compound | EC50 [1] | HSA % binding [2] | PFI (ChromlogD assay) | IC50 (Cytochrome P450 (CYP450); CYP3A4, VG substrate, read-out: CYP3A4VG pXC50 (converted)) | IC50 (Cytochrome P450 (CYP450); CYP3A4, VR substrate, read-out: CYP3A4VR pXC50 (converted)) | solubility kinetic at 1 h [3]
1 | Nc1nc(Nc2cccc(S(N)(=O)=O)c2)nc2c1cnn2C1CCC1 [NEU-0001107] | 398 nM | 92.96% |  |  |  | 
2 | Nc1cc(-c2ccc3ncnc(N4CCOCC4)c3c2)cnc1N [NEU-0001111] |  |  | 5.37 |  |  | 
3 | NC(=O)c1ncc(NC[C@@H]2CCCN2)nc1Nc1cccc(F)c1 [NEU-0001109] | 63.1 nM | 93.61% |  | 25100 nM | > 50100 nM | 228 µM (≈ 75.3 µg/mL)
